We go through 55 molecules from PMC4336329 (PLoS ONE, 2015).

Out of some 310,000 compounds screened, about 14,000 (4.5%) showed an effect of 50% or more. Effects have a minus sign here. This is one part of the list.
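Further: peak tail current of the secondary pulse compared with the same well before compound.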

In this test the target is human ether-à-go-go-related gene (hERG) potassium channel (human, UniProt Q12809). Kind of test: primary screen, population patch clamp on CHO cells stably expressing hERG.
Chain of human ether-à-go-go-related gene (hERG) potassium channel (Q12809 whole entry, looked up): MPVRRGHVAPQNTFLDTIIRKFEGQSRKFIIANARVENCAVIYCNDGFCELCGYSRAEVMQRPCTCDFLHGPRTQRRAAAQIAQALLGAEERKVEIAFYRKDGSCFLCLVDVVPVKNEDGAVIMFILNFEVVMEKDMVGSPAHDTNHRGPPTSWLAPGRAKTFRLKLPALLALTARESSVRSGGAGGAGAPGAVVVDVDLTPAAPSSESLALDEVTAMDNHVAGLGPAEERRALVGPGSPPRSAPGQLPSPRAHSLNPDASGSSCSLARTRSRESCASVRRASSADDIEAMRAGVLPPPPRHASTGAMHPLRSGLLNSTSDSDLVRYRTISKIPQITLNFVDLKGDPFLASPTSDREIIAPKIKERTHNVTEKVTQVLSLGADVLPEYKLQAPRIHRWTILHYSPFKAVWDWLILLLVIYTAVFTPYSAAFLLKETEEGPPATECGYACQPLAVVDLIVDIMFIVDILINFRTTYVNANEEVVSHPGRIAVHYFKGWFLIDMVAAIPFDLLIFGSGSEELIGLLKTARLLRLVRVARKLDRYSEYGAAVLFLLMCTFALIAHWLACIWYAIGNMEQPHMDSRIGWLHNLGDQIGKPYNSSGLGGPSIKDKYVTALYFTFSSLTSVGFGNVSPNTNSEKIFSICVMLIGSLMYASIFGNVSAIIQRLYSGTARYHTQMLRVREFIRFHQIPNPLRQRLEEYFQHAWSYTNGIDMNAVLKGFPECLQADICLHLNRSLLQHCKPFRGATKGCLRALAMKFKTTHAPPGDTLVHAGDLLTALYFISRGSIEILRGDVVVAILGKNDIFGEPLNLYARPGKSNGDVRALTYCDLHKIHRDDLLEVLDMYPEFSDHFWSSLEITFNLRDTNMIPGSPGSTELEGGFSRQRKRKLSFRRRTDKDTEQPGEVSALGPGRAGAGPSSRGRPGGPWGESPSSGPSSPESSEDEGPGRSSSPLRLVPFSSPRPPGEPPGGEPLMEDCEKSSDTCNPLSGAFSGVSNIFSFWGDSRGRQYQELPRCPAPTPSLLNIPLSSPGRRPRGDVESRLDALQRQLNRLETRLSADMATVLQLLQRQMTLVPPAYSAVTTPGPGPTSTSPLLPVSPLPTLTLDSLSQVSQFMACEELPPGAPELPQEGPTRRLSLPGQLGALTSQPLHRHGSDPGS
Take `O=C(NO)c1ccc(OC(F)F)cc1`: the “hERG current change (%, negative = inhibition) at 10uM” value stood at 7.91%.

Take `COCC(=O)NC1CC(C)(C)Cc2c1cnn2-c1ccc(F)cc1` (stereo not shown): the “hERG current change (%, negative = inhibition) at 10uM” value is recorded as -64.9%.

As for `Cc1cc2ccccc2n2c(SCC(=O)NCC3CCCO3)nnc12` (stereo not shown), the “hERG current change (%, negative = inhibition) at 10uM” value is recorded as 2.84%.

Turning to `COc1ccc(NC(=O)CN2C(=O)NC(C)(C3CC3)C2=O)cc1S(=O)(=O)N1CCCCC1` (stereo not shown), the “hERG current change (%, negative = inhibition) at 10uM” value is 9.03%.

`O=C(CCOc1ccc(F)cc1)Nc1nccs1`: the “hERG current change (%, negative = inhibition) at 10uM” value is recorded as 15.1%.

As for `Cc1c(Cl)cccc1N=Cc1ccc([N+](=O)[O-])s1`, the “hERG current change (%, negative = inhibition) at 10uM” value is 10.1%.

For the molecule `COc1ccc(C(=O)N2CCN(S(=O)(=O)N3CCOCC3)CC2)cc1OC`, the “hERG current change (%, negative = inhibition) at 10uM” value was determined as 11.2%.

With `O=C(O)c1ccn(COc2ccc(Br)cc2)n1`, the “hERG current change (%, negative = inhibition) at 10uM” value stood at 11.9%.

Turning to `Cc1ccc(C(=O)N2CCN(c3ccc(NC(=O)c4cc(C)cc(C)c4)cc3)CC2)cc1`, the “hERG current change (%, negative = inhibition) at 10uM” value was -4.62%.

Take `C=CCC1=C/C(=C\c2c(N)n3nc(CC(=O)N4CCCC4)sc3nc2=O)C=C(OC)C1=O`: the “hERG current change (%, negative = inhibition) at 10uM” value is on record as 16.8%.

Take `CCOC(=O)c1[nH]c(C)c(C(=O)OCC(=O)N2c3ccccc3CC2C)c1C` (stereo not shown): the “hERG current change (%, negative = inhibition) at 10uM” value is on record as -0.0968%.

In the case of `CN(CCO)c1ccc([N+](=O)[O-])cc1C(=O)O`, the “hERG current change (%, negative = inhibition) at 10uM” value was -7.72%.

For `COc1cccc(CNS(=O)(=O)c2ccc3c(c2)NC(=O)CS3)c1`, the “hERG current change (%, negative = inhibition) at 10uM” value stood at 2.05%.

On to `COc1ccc(S(=O)(=O)NCCc2nnc3ccc(SCc4cccnc4)nn23)cc1`, for which the “hERG current change (%, negative = inhibition) at 10uM” value is 12.3%.

As for `Cc1ccc(NC(=O)CN(C)CC(=O)Nc2c(C)cccc2C)c(Br)c1`, the “hERG current change (%, negative = inhibition) at 10uM” value amounted to 1.94%.

In the case of `COc1ccc(CCNC(=O)C2CCN(S(=O)(=O)c3ccc4nc5c(c(C(=O)O)c4c3)CCCC5)CC2)cc1OC`, the “hERG current change (%, negative = inhibition) at 10uM” value is 1.65%.

As to `COc1nccnc1NS(=O)(=O)c1ccc(NC(=S)NC(=O)c2ccc(F)c(F)c2)cc1`, the “hERG current change (%, negative = inhibition) at 10uM” value is given as -15%.

For `Cc1ccc(CS(=O)(=O)Cc2ccc(C(=O)NCCc3ccccc3)o2)cc1`, the “hERG current change (%, negative = inhibition) at 10uM” value is -14.4%.

`O=C(Nc1ccc(Oc2cccnc2)cc1)c1ccc([N+](=O)[O-])cc1`: the “hERG current change (%, negative = inhibition) at 10uM” value was -2.81%.

With `O=C(CSc1ccc(-c2ccccn2)nn1)N1CCCC1`, the “hERG current change (%, negative = inhibition) at 10uM” value worked out at 6.44%.

Turning to `CCOc1cc(/C=C2\SC(=Nc3ccc(F)cc3)N(c3ccc(F)cc3)C2=O)ccc1OCC(=O)O`, the “hERG current change (%, negative = inhibition) at 10uM” value was determined as 16.9%.

Turning to `C=CCc1cc2c(oc(=O)c3ccccc32)c(C)c1O`, the “hERG current change (%, negative = inhibition) at 10uM” value is 10.7%.

`CCC(C)NC(=O)CNC(=S)N(Cc1ccccc1)Cc1cccnc1` (stereo not shown): the “hERG current change (%, negative = inhibition) at 10uM” value is given as -16.2%.

As to `NC(=O)c1ccsc1NC(=O)Cc1ccc([N+](=O)[O-])cc1`, the “hERG current change (%, negative = inhibition) at 10uM” value is reported as -42.7%.

As to `Cc1cccc(Nc2nnc(SCC(=O)Nc3ncc(C(F)(F)F)cc3Cl)s2)c1C`, the “hERG current change (%, negative = inhibition) at 10uM” value is on record as -7.53%.

Consider `CCC1(c2ccccc2)ON(c2c(Br)cccc2Br)C1=O` (stereo not shown), for which the “hERG current change (%, negative = inhibition) at 10uM” value amounted to 20.5%.

Consider `CCOc1ccc(-c2ccc(C=O)o2)c([N+](=O)[O-])c1`, for which the “hERG current change (%, negative = inhibition) at 10uM” value is listed as -19.7%.

In the case of `CCCCC(=O)Nc1sc(C(=O)N(CC)CC)c(C)c1C(=O)OC`, the “hERG current change (%, negative = inhibition) at 10uM” value was -9.07%.

`O=C(NCc1ccccc1)C1=C[C@@H](C2CCCCC2)C[C@@H](OCCCCO)O1`: the “hERG current change (%, negative = inhibition) at 10uM” value was 5.44%.

In the case of `CCc1cccc(NC(=O)CCS(=O)(=O)c2cc3c(cc2C)NC(=O)CO3)c1`, the “hERG current change (%, negative = inhibition) at 10uM” value was -14.1%.

Consider `CCN(C(=O)COC(=O)/C(=C/c1ccccc1)n1nnnc1C)C1CCCCC1`, for which the “hERG current change (%, negative = inhibition) at 10uM” value was -4.63%.

Turning to `Cc1nc(C)c(C(=O)Nc2ncc([N+](=O)[O-])s2)o1`, the “hERG current change (%, negative = inhibition) at 10uM” value came to 20%.

As for `CN1C(=O)CSC1=Nc1ccc(F)cc1`, the “hERG current change (%, negative = inhibition) at 10uM” value came out at 22.5%.

Regarding `O=C1COc2ccc(S(=O)(=O)N3CCc4ccccc43)cc2N1`, the “hERG current change (%, negative = inhibition) at 10uM” value is listed as -12.3%.

On to `O=C(NCCCO)C(=O)NCc1ccncc1`, for which the “hERG current change (%, negative = inhibition) at 10uM” value came out at 23.9%.

For `CCCc1[nH]n(-c2nc3ccccc3s2)c(=O)c1C=NCC(C)C`, the “hERG current change (%, negative = inhibition) at 10uM” value was -75.4%.

Turning to `COc1ccc(C(=O)NCc2ccc3[nH]c(C)cc3c2)cc1OC`, the “hERG current change (%, negative = inhibition) at 10uM” value was 22.2%.

With `Cc1ccc(CN2C(=O)CCSc3ccc(Cl)cc32)cc1`, the “hERG current change (%, negative = inhibition) at 10uM” value amounted to 4.52%.

For the molecule `Cn1c(N2CCN(C(=O)Nc3ccc(F)cc3)CC2)nc2ccccc21`, the “hERG current change (%, negative = inhibition) at 10uM” value was -55.8%.

Consider `CCCC(C(=O)NC(C)(C)C)N(Cc1ccccc1Cl)C(=O)c1snc(C(N)=O)c1N` (stereo not shown), for which the “hERG current change (%, negative = inhibition) at 10uM” value came out at 9.08%.

As for `CN1/C(=C\C(=O)c2ccco2)C(C)(C)c2ccccc21`, the “hERG current change (%, negative = inhibition) at 10uM” value is listed as -15%.

As to `Cc1ccc(S(=O)(=O)c2ccc([N+](=O)[O-])cn2)cc1`, the “hERG current change (%, negative = inhibition) at 10uM” value came out at 0.594%.

Regarding `CCOc1ncccc1C(=O)Nc1cccc(S(=O)(=O)NC2=NCCC2)c1`, the “hERG current change (%, negative = inhibition) at 10uM” value was -6.34%.

`Cc1ccccc1NC(=O)CN1C(=O)S/C(=C\c2ccc(-c3cccc(C(=O)O)c3C)o2)C1=O`: the “hERG current change (%, negative = inhibition) at 10uM” value came out at 23.7%.

Turning to `c1ccc(-c2cc3c(ccc4nonc43)nn2)cc1`, the “hERG current change (%, negative = inhibition) at 10uM” value is on record as 10.1%.

For the molecule `CCn1c(C)nc2cc(C(=O)N/N=C/c3cccc(OC)c3O)ccc21`, the “hERG current change (%, negative = inhibition) at 10uM” value was 22.6%.

Turning to `O=C(C1=C(O)C(=O)N(Cc2ccccc2)C1c1ccco1)c1ccco1` (stereo not shown), the “hERG current change (%, negative = inhibition) at 10uM” value was determined as 29.1%.

Regarding `Cc1cc(C)nc(NS(=O)(=O)c2ccc(NC(=O)c3cc4c(=O)n5cccc(C)c5nc4n3C)cc2)n1`, the “hERG current change (%, negative = inhibition) at 10uM” value came to 15.9%.

With `CC(C)=CC(=O)OCC(=O)Nc1cc([N+](=O)[O-])ccc1F`, the “hERG current change (%, negative = inhibition) at 10uM” value was found to be 0.461%.

For the molecule `C=CCC1(C(=O)NCCO)CCN(C(=O)OC(C)(C)C)CC1`, the “hERG current change (%, negative = inhibition) at 10uM” value is reported as 1.56%.

Take `COc1cccc(NC(=O)CCSc2nnc3scc(-c4ccccc4)n23)c1`: the “hERG current change (%, negative = inhibition) at 10uM” value was -0.933%.

For the molecule `COc1cccc(NC(=O)CSc2nc(=O)n(CCN(C)C)c3c2CCCC3)c1`, the “hERG current change (%, negative = inhibition) at 10uM” value is on record as -49.9%.

Turning to `CN(C)CCC(O)(c1ccccc1)c1ccccc1.Cl`, the “hERG current change (%, negative = inhibition) at 10uM” value is listed as -20.2%.

Turning to `CCn1c(C(=O)N2CCC(C(=O)NCCCSC3CCCCC3)CC2)cc2sccc21`, the “hERG current change (%, negative = inhibition) at 10uM” value is on record as -31.3%.

Regarding `O=C(N=Nc1c(O)[nH]c2ccccc12)c1cccc(S(=O)(=O)Nc2ccccc2Cl)c1`, the “hERG current change (%, negative = inhibition) at 10uM” value came to 1.88%.
